For 95 molecules, inhibition results are on record in PubChem BioAssay AID2069 (Sanford-Burnham Center for Chemical Genomics, 2009).

The inhibition is the relative decrease from the control value, in per cent.

Molecules are shown by their SMILES. Hit rate of the full screen: of about 1,200 compounds, about 210 (18%) were called active. No stated cut-off is given here; in the data, active means inhibition above about 30%; inactive means the rest. This is a selection; strong and weak results do not stand in their true shares.

This test in a line: HTRF signal interference by compounds, confirmation, artefact control for SUMOylation inhibitor project, biochemical, uHTS (AID 2069). The note with it: HTRF interference counterscreen, fluorescence, at 35 µM, active compounds read high.
For the molecule `Oc1ccc2ccccc2c1C=NCc1ccccc1`, the inhibition is inactive: 21.1%.
The figure for `CCOC(=O)c1ccc(N2C(=O)c3n[nH]c(-c4ccco4)c3C2c2ccc([N+](=O)[O-])cc2)cc1` (stereo not given) is inactive: 2.65%; for `CN1C(=O)N(C)c2ccc(C=O)c3cccc1c23` it is inactive: 7.55%.
The figure for `O=C1C=C(O)c2cccc(O)c2C1=O` is inactive: -10.9%; for `Oc1ccc(NCc2ccccc2OCc2ccccc2F)cc1` it is inactive: -9.2%.
The figure for `COc1ccccc1/C=C/CN1CCN(c2ccccc2)CC1` is inactive: 12.9%.
For the molecule `Cc1occc1C(=O)N1CCN(c2ccccc2)CC1`, the inhibition was inactive: 0.55%.
The same measure for `S=c1[nH]nc(-c2ccco2)n1/N=C/C=C/c1ccco1`: inactive: -3.85%.
Take `O=C(N/N=C/c1ccc([N+](=O)[O-])o1)c1cn2ccc3ccccc3c2n1`: the inhibition is inactive: 0%.
Turning to `COc1cc2c(C#N)c(N3CCN(c4ccccc4OC)CC3)nc(N)c2c(N)n1`, the inhibition was inactive: 16.6%.
As to `Cc1ccc(NC(=S)Nc2cccc3ccccc23)cc1`, the inhibition was inactive: -5.1%.
As for `C=CCN(CC=C)C(=S)Nc1ccc2nsnc2c1`, the inhibition is inactive: 17%.
The figure for `Cc1oc2c(c(C)cc3oc(=O)c(CC(=O)N[C@@H](C)C(=O)O)c(C)c32)c1C` is active: 53.8%; for `CCN(CC)c1ccc(NC(=O)CSc2nc(C3CC3)nc3ccccc23)cc1C` it is inactive: 3.8%.
Turning to `CC1OC(Nc2cccc3ccccc23)C(O)C(O)C1O` (stereo not given), the inhibition was inactive: 20.2%.
`Cc1[nH]n(-c2ccccc2)c(=O)c1C(c1ccc(C(=O)O)cc1)c1c(C)[nH]n(-c2ccccc2)c1=O`: the inhibition is inactive: -3.6%.
The same measure for `CCOC(=O)N1CCN(C(=O)c2cccn3c(=O)c4cc(Br)ccc4nc23)CC1`: active: 49.9%.
For the molecule `C=CCC(Nc1ccccc1)C12C=CC(O1)C(C(=O)OC)=C2C(=O)OC` (stereo not given), the inhibition is inactive: -5.2%.
The figure for `CC(=O)Oc1ccc2c(C)c(CC(C)O)c(=O)oc2c1` (stereo not given) is active: 42.2%; for `Oc1ccc(NC(=S)Nc2ccc(O)cc2)cc1` it is inactive: 19.6%; for `O=C(N/N=C\c1cn[nH]c1-c1ccc(Cl)cc1)c1cccs1` it is inactive: 6.85%.
In the case of `Oc1ccc(C=Nc2cccc3ncccc23)c(O)c1`, the inhibition was inactive: 0.25%.
The same measure for `COC(=O)c1ccccc1-c1ccc(C(c2c(C)[nH][nH]c2=O)c2c(C)[nH][nH]c2=O)o1`: inactive: -4%; for `Cc1cc2c(N)cccc2nn1`: inactive: -4.5%.
The figure for `N#C/C(=C/c1ccc(-c2ccccc2)o1)c1nc(-c2cccs2)cs1` is inactive: 19.3%; for `CN(C)c1ccc(/C=N/Nc2cc(N3CCOCC3)nc(N3CCOCC3)n2)cc1` it is inactive: -27.3%.
The figure for `Oc1ccc(NCc2ccc(OCc3ccccc3)cc2)cc1` is inactive: -0.1%.
`O=C(CNc1cccc2ccccc12)N/N=C/c1ccc(OC(=O)/C=C/c2ccco2)cc1`: the inhibition is inactive: -0.3%.
Consider `S=c1[nH]nc(-c2cccs2)n1/N=C/c1cn(-c2ccccc2)nc1-c1ccc(Cl)cc1`, for which the inhibition was inactive: -0.3%.
The figure for `Cc1cc2c(NC(=O)Nc3ccc(F)cc3)cccc2nn1` is inactive: -6.2%; for `COc1ccc2ccc3c(c2c1)N=C[C@]1(O3)N(C)c2ccccc2C1(C)C` it is inactive: -2.25%.
Regarding `O=C(N/N=C/c1cc(Cl)cc([N+](=O)[O-])c1O)c1ccccc1NS(=O)(=O)c1cccs1`, the inhibition is active: 39.8%.
`CC(=O)OCCNc1cc(SCc2ccco2)c2nonc2c1[N+](=O)[O-]`: the inhibition was inactive: -1.55%.
As to `N#Cc1c(-c2ccccc2)nc(SCC(=O)N2c3ccccc3Sc3ccccc32)[nH]c1=O`, the inhibition was inactive: 15.3%.
In the case of `Cc1oc2c(c1C(=O)N1CCC(C)CC1)C(=O)c1ccccc1C2=O`, the inhibition is inactive: -1.25%.
As for `CC(C)(C)c1cc[n+](C2=C([O-])c3ccccc3C(=O)/C2=N\S(=O)(=O)c2cccs2)cc1`, the inhibition was inactive: -1.85%.
The figure for `O=C1CC(CC(=O)N/N=C/c2ccccc2[N+](=O)[O-])=NN1` is inactive: 2.8%; for `O=c1[nH]c(N2CCN(c3ccccc3)CC2)nc2c1CCC2` it is inactive: -16%.
Regarding `O=S(=O)(Nc1ccc2c(c1)nc1n2CCN(Cc2ccccc2)C1)c1ccccc1`, the inhibition was inactive: 22.8%.
The figure for `Cc1cc(-c2csc(NC(=O)c3ccc(C#N)cc3)n2)c(C)n1Cc1ccco1` is inactive: -7.5%; for `O=c1oc2ccccc2c(Nc2cccc3cccnc23)c1[N+](=O)[O-]` it is inactive: 9.9%.
The figure for `Cc1ccc(F)c(NC(=S)Nc2cccc3ccccc23)c1` is inactive: -4.3%; for `N#Cc1ccc(-c2csc(NC(=O)/C=C/c3cccs3)n2)cc1` it is inactive: 21.3%.
Consider `CN(C)c1ccc(C(=O)/C=C/c2ccco2)cc1`, for which the inhibition was inactive: 1.65%.
Consider `O=[N+]([O-])c1ccc2nc(CCCc3nc4ccc([N+](=O)[O-])cc4[nH]3)[nH]c2c1`, for which the inhibition is inactive: 28.1%.
The same measure for `O=[N+]([O-])c1cccc2cn[nH]c12`: inactive: -9.95%; for `CCC(C)(C)n1nnnc1CN(Cc1cc2cc(OC)c(OC)cc2[nH]c1=O)C1CCCC1`: inactive: 7.8%; for `O=C(c1cccn2c(=O)c3cc(Cl)ccc3nc12)N1CCOCC1`: active: 44.6%.
Regarding `O=[N+]([O-])c1cc2c(cc1CN1CCN(CCOCCO)CC1)OCO2`, the inhibition was inactive: -7.45%.
`Fc1ccc(NC(=S)Nc2cccc3cnccc23)cc1`: the inhibition was inactive: -7.7%.
The figure for `CC(=O)c1ccc(NC(=S)Nc2cccc3ccccc23)cc1` is inactive: 14.1%.
For `Cc1c(CC(=O)N2CCN(C(=O)C3COc4ccccc4O3)CC2)c(=O)oc2c(C)c(O)ccc12` (stereo not given), the inhibition was active: 66.6%.
As to `COc1ccc(CCNC(=O)c2ccc3nc(-c4ccco4)c(-c4ccco4)nc3c2)cc1OC`, the inhibition is inactive: 13.3%.
The figure for `COc1cc(C2c3c(oc4ccccc4c3=O)C(=O)N2c2nccs2)ccc1O` (stereo not given) is inactive: 7.95%.
The same measure for `Cc1[nH][nH]c(=O)c1C(c1ccc(-c2ccc(Cl)cc2)o1)c1c(C)[nH][nH]c1=O`: inactive: -34.2%; for `CN(Cc1ccco1)C(=O)c1cc2c(s1)-c1ccc(Cl)cc1S(=O)(=O)C2`: inactive: -9.15%.
`O=c1c2ccccc2nc(/C=C/c2cccnc2)n1Cc1ccccc1`: the inhibition is active: 30.9%.
The figure for `C/C(=C\C(=S)Nc1ccccc1)Nc1cccc2ccccc12` is inactive: -57.6%; for `COc1ccc(N(C)C(=O)Nc2ccc3nsnc3c2)cc1` it is inactive: 20.2%.
The same measure for `COc1ccc2c(c1)Cc1sc(NC(=O)c3ccccc3)nc1-2`: inactive: 13.9%.
The figure for `Cc1ccc(NC(=S)Nc2ccc3cn[nH]c3c2)cc1` is inactive: -3.15%.
In the case of `Cc1ccccc1NC(=O)c1ccc(N/N=C/c2ccccc2O)c([N+](=O)[O-])c1`, the inhibition is inactive: 24.7%.
Regarding `CN(C)/C=N/c1nc2nccc(-c3cccnc3)n2n1`, the inhibition was active: 49.2%.
With `COc1cc(OC)c(C2Nc3cccc4cccc(c34)N2)c(OC)c1`, the inhibition was inactive: -3.6%.
For the molecule `Cc1ccccc1-c1nc2cc(N)ccc2o1`, the inhibition was active: 46.2%.
The figure for `COc1cc([N+](=O)[O-])cc(/C=N/NC(=O)C(C)Nc2cccc3ccccc23)c1O` (stereo not given) is inactive: -51.5%; for `COc1ccc2oc(=O)c(/C(C)=N/NC(=O)c3ccncc3)cc2c1` it is inactive: 18.8%; for `Cn1c(=O)c2cc(NCc3ccccc3)nnc2n(C)c1=O` it is inactive: -0.5%.
`CCCCCCCC1(C)NC(=O)N(CC(=O)Nc2cc(C)on2)C1=O` (stereo not given): the inhibition was inactive: -7.4%.
The same measure for `COc1ccc(NC(=S)Nc2cccc3ccccc23)cc1OC`: inactive: -11.6%; for `CCN1C(=O)N(CC)c2cccc3cccc1c23`: inactive: -17.4%.
Regarding `O=C(Cc1ccccc1)Nc1nnc(-c2ccco2)s1`, the inhibition was inactive: 13.9%.
With `O=C(N/N=C/c1ccc(-c2ccc(Cl)c(C(=O)O)c2)o1)c1cc2c(ccc3ccccc32)o1`, the inhibition is active: 50.7%.
Take `Cn1c(NNC(=O)c2c(F)cccc2F)cc(=O)n(C)c1=O`: the inhibition is inactive: 1.3%.
Take `COC(=O)C1C(O)=C(C(C)=Nc2cccc3ccccc23)C(=O)CC1(C)C` (stereo not given): the inhibition is inactive: 1.3%.
The figure for `CCCCN1Cc2c(nc3cc(-c4ccco4)[nH]n3c2=O)C1=O` is active: 31.7%; for `COc1ccc(NCc2ccc([N+](=O)[O-])s2)c(OC)c1` it is inactive: -4.6%; for `CC(C)(C)c1ccc(C(=O)NNc2cc(N3CCOCC3)nc(N3CCOCC3)n2)cc1` it is inactive: -7.95%.
In the case of `Cc1ccc(C)c(S(=O)(=O)Nc2cc(SCC(=O)O)c(O)c3ccccc23)c1`, the inhibition was inactive: -2.2%.
The same measure for `CCCCOc1ccc(CSc2ncn[nH]2)cc1`: inactive: -7.1%; for `COc1cc2c(C#N)c(N3CCCC3)nc(N)c2c(N)n1`: inactive: 27.4%; for `O=C1CCN(c2ncccc2[N+](=O)[O-])CC1`: inactive: 15.4%.
The figure for `CC(Nc1cccc2ccccc12)C(=O)N/N=C/c1ccccn1` (stereo not given) is inactive: 9.55%; for `CC(C)NC(=S)Nc1cccc2cnccc12` it is inactive: 7.55%.
For the molecule `O=C(COc1ccc(/C=N/NC(=O)c2ccc(O)cc2)cc1)Nc1ccc([N+](=O)[O-])cc1`, the inhibition is inactive: 4.6%.
In the case of `c1ccc(Nc2ccccc2Nc2ccccn2)nc1`, the inhibition is inactive: 5.5%.
The same measure for `CCc1ccc2c(c1)C(NC(C)=O)C(=O)N2CCN1CCOCC1` (stereo not given): active: 30.8%; for `Cc1ccc(Cn2cccc(NS(C)(=O)=O)c2=O)cc1`: inactive: -3.15%; for `Nc1c(C(=O)Nc2ccccc2)sc2nc(-c3ccco3)ccc12`: active: 50.1%.
For the molecule `O=C(CCN1C(=O)/C(=C/c2ccco2)SC1=S)Nc1ccc(C(=O)O)c(O)c1`, the inhibition is inactive: 7.15%.
The same measure for `COc1ccccc1/C=C/C=N/NC(=O)c1cc(-c2ccco2)[nH]n1`: inactive: 1.9%; for `O=C(NCc1ccc(F)cc1)C(=O)c1cn(CC(=O)N2CCCC2)c2ccccc12`: inactive: -5.8%.
The same measure for `CC1=NN(c2ccccc2)C(=O)/C1=C/c1ccc(Cl)cc1`: inactive: -10.2%.
The same measure for `O=c1c2ccccc2nc2n1CCC2`: active: 31.4%.
Take `Cc1cc(C)c(S(=O)(=O)Nc2cc(SCC(=O)O)c(O)c3ccccc23)cc1C`: the inhibition is inactive: 2.6%.
